Assay results published in PubChem BioAssay (NCI).
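In this assay, cells in 96-well plates receive the compound at five concentrations for 48 hours. Endpoints are linearly interpolated between the surrounding concentrations. GI50 marks 50% less growth. The concentration for full growth arrest is given as TGI.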

tested on: NCI-H322M lung; assay: growth of human tumour cells (NCI), 48 h

Row | Compound | GI50 | TGI
1 | COc1ccc2c3c(Nc4cccc(/C(C)=N\O)c4)[nH]c4ccccc4c-3c(N=O)c2c1 | 25 µM | 70.3 µM
2 | COc1cc(C2c3cc4c(cc3[C@@H](Nc3cccc(CO)c3)C3COC(=O)[C@H]23)OCO4)cc(OC)c1O (stereo partly drawn) |  | 52 µM
3 | N=C(N)c1ccc(-c2ccc(/C=C/c3ccccc3)s2)cc1 | 1.61 µM | 2.99 µM
4 | COc1cccc(C23CCCC(C2)NCC3Br)c1OC (stereo not drawn) |  | > 100 µM
5 | BrC(Br)=C1C(=C(Br)Br)C(Br)C1Br (stereo not drawn) |  | 5.89 µM
6 | CC(=O)c1[nH]c(NC(C)C)c(C(=S)Nc2ccccc2)c1N |  | > 100 µM
7 | CCCc1n(Cc2ccc3ccccc3c2)cc[n+]1Cc1ccc2ccccc2c1 | 1.96 µM | 6 µM
8 | CCC(C)C(N)C(=O)NC(CC(N)=O)C(=O)NC(CC(C)C)C(=O)NC(CCCCN)C(=O)NC(C)C(=O)NC(CC(C)C)C(=O)NC(C)C(=O)NC(C)C(=O)NC(CC(C)C)C(=O)NC(C)C(=O)NC(CCCCN)C(=O)NC(CCCCN)C(=O)NC(C(=O)NC(CC(C)C)C(N)=O)C(C)CC (stereo not drawn) |  | 16.7 µM
9 | N.N.N.N.N.NC(=O)[O-].[Co+3].[I-] | > 100 µM | > 100 µM
10 | Nc1c(C(=O)Nc2ccccc2)sc2nc3c(cc12)CCCCC3 | 0.907 µM | > 100 µM
11 | N#CCc1c(-c2ccccc2)n(S(=O)(=O)c2ccccc2)c2ccccc12 |  | > 100 µM
12 | O=C(CC1(O)C(=O)N(Cc2ccccc2)c2ccc(Cl)cc21)c1ccc(C(=O)NCC2CCC3(CC2)OOC2(CCCCC2)OO3)cc1 (stereo not drawn) | 8.1 µM | > 100 µM
13 | CC1(c2sccc2Cl)CC(c2sccc2Cl)=C(C#N)C(=C(C#N)C#N)N1 (stereo not drawn) |  | 34.9 µM
14 | NC(N)=NCC1CCCCCCN1 (stereo not drawn) |  | > 100 µM
15 | O=[N+]([O-])C(/C=C(\Cl)[N+](=O)[O-])=C1Nc2ccccc2N1 |  | > 100 µM
16 | COc1ccc(/C(=N\NC(=O)NN)C(c2ccc(OC)cc2)C2(O)C(=O)Nc3c(Cl)cc(Cl)cc32)cc1 (stereo not drawn) |  | > 100 µM
17 | COC1CCON1C(=O)c1ccccc1 (stereo not drawn) |  | > 10 µM
18 | COC(=O)c1c(C(=O)OC)c2ccccn2c1-c1cc(OC)c(Br)c(=O)o1 |  | > 100 µM
19 | O=C(CCl)NCCNc1nccc(Nc2ccc(S(=O)(=O)Nc3ccccn3)cc2)n1 | 2.92 µM | 12.9 µM
20 | CCCCN1CCCC[C@@H]1C(=O)N[C@H](C(=O)N(C)[C@H](C[C@@H](OC(C)=O)c1nc(C(=O)NC2CCC(C(=O)OC)CC2)cs1)C(C)C)C(C)C (stereo partly drawn) | 1.69 µM | > 25 µM
21 | COc1cc(C2CC(c3cccc(Nc4ccnc5cc(Cl)ccc45)c3)=NN2c2ccc(Cl)cc2)cc(OC)c1OC (stereo not drawn) | 22.2 µM | > 100 µM
22 | COc1cc2c3cc1Oc1c(O)c(OC)cc4c1C(Cc1ccc(O)c(c1)Oc1ccc(cc1)CC3N(C)CC2)N(C)CC4 (stereo not drawn) |  | 31.5 µM
23 | Cc1ccc(Nc2nccc(N(C)c3ccc4c(C)n(C)nc4c3)n2)cc1S(N)(=O)=O |  | > 100 µM
24 | CSc1nc(C)cc(Nc2ccc(O)c(CN3CCOCC3)c2)n1 |  | > 100 µM
25 | COC(=O)C1Cc2ccc(O)c(O)c2CN1 (stereo not drawn) |  | 89.2 µM
26 | CCC(=O)N1C(=O)OCC1C(C)C (stereo not drawn) |  | > 100 µM

Row | Compound | GI50 | TGI
27 | CCCCC(CCCCCC(CCCC)NCc1ccc2c(c1)OCO2)NCc1ccc2c(c1)OCO2 (stereo not drawn) | 0.712 µM | 1.84 µM
28 | CC(=O)O[C@H]([C@H](OC(C)=O)[C@H](C)OC(C)=O)[C@@H](/C=C/[C@@H]1CC=CC(=O)O1)OC(C)=O | > 100 µM | > 100 µM
29 | CCCCCCCCCCCCCCCCCc1nccn1CCOCCO | 6.05 µg/mL | 11.9 µg/mL
30 | CCCCCCCCCCCC(=O)OC[C@H](C[As](=O)(O)O)OC(=O)CCCCCCCCCCC |  | 30.9 µM
31 | COc1ccc(/C(C)=N/NC(=O)c2ccncc2)c(OC)c1 |  | > 10 µM
32 | NC(N)=NS(=O)(=O)c1ccc(N/N=C2/CCOC2=O)cc1 |  | > 100 µM
33 | N#Cc1ccc(Cc2ccccn2)cc1Cl |  | > 100 µM
34 | N#CC(N=Nc1ccccc1C(=O)O)C(N)=O (stereo not drawn) |  | > 100 µM
35 | CC(Oc1ccccc1Cl)C(=O)NN1C(=O)CC(=O)N(c2ccccc2)C1=S (stereo not drawn) |  | > 100 µM
36 | CCOC(=O)Cn1c2ccccc2c(=O)c2cc(C)c(C)c(C#N)c21 |  | > 100 µM
37 | CC12C3C4C1C1C2C3C41CO (stereo not drawn) |  | > 100 µM
38 | COc1ccc(C#Cc2ccc(=O)oc2-c2cc(OC)c(OC)c(OC)c2)cc1O | 25.8 µM | > 100 µM
39 | CCN1CCC(Nc2ccnc3cc(Cl)ccc23)CC1 | 20.8 µM | > 100 µM
40 | COC(=O)C1CCC(=S)N1C(=O)OCc1ccccc1 (stereo not drawn) |  | > 100 µM
41 | O=C1C=CC2OC(c3ccccc3)C(O)C2O1 (stereo not drawn) |  | 18.4 µM
42 | CO[C@@H]1C=C[C@@]23c4cc5c(cc4CN(C[C@@H]2O)[C@H]3C1)OCO5 |  | > 100 µM
43 | Cc1c[n+]2c3ccccc3c3ccccc3c2s1 |  | 48.6 µM
44 | C[C@@]1(C(=O)O)CCC[C@]2(C)C1CC[C@@]13C[C@@](O)(CC[C@]12O)[C@@]1(CO1)C3 (stereo partly drawn) | > 100 µM | > 100 µM
45 | Cc1cc(S(=O)(=O)N2CCNNC2=O)c(S)cc1Cl |  | 81.6 µM
46 | O=C(O)/C(Cl)=C(\Cl)C(=O)c1ccccc1 |  | > 100 µM
47 | CC(C)N1CCN(c2ccncc2S(=O)(=O)N2CCCCC2)CC1 |  | > 100 µM
48 | COc1cc(Oc2c(C)c(Cl)c(OC)c(Cl)c2OC)c2c(c1Cl)COC2=O |  | > 100 µM
49 | Cc1nc2c(c(N3CCCc4ccccc43)n1)CCC2 | 0.0104 µM | > 100 µM
50 | Oc1ccc(O)c(-c2cn3c(n2)SCC3)c1 | 22 µM | 53.1 µM
51 | COc1ccc([N+](=O)[O-])c2c(NCCCN(C)C)ccnc12 |  | 93.2 µM
52 | COC(=O)C1CCC(=O)N1C(c1cc(OC)c(OC)c(OC)c1)c1cc(OC)c(OC)c(OC)c1 (stereo not drawn) |  | > 100 µM

Row | Compound | GI50 | TGI
53 | N#CC(C(=O)C(=O)Nc1ccccc1)c1ccccc1 (stereo not drawn) |  | > 100 µM
54 | O=C1CSC(c2c[nH]c3ccccc23)N1c1ccc(Cl)cc1 (stereo not drawn) |  | > 100 µM
55 | CCCc1cn2c(/C=N/N=C(N)N)c(-c3cccc([N+](=O)[O-])c3)nc2s1 |  | 2.78 µM
56 | C=C1C(=O)O[C@H]2[C@H]1CC/C(COC(=O)NCc1c[nH]c3ccccc13)=C\CC[C@@]1(C)O[C@@H]21 | 11.1 µM | 23.4 µM
57 | CC1CN=C(NS(=O)(=O)c2cc(C(=O)Nc3ccc(Cl)cc3)c(Cl)cc2S)NN1 (stereo not drawn) |  | > 100 µM
58 | C[C@]12CCC(=O)C(OC(=O)c3ccc([N+](=O)[O-])cc3)=C1CCC2=O |  | > 100 µM
59 | Cc1c2ccn(O)cc2c(C)c2c1nc1ccccc12 |  | > 97.1 µM
60 | CN(CCCCCl)P(=O)(OCCS(=O)(=O)CC(NC(=O)CCC(N)C(=O)O)C(=O)NC(C(=O)O)c1ccccc1)OCC1OC(n2ccc(N)nc2=O)C(O)C1O (stereo not drawn) | > 75 µM | > 75 µM
61 | CC(C)N(O)C(=N)c1ccccc1 |  | > 100 µM
62 | Clc1cc2nn(C3CCCCO3)nc2cc1Cl (stereo not drawn) |  | > 100 µM
63 | C=CCN1/C(=C(\C#N)c2nc3ccccc3[nH]2)Sc2c1nc[nH]c2=O |  | > 100 µM
64 | CC(=O)OCC1OC(n2ccc(=O)[nH]c2=O)C(OC(C)=O)C(OC(C)=O)C1OC(C)=O (stereo not drawn) |  | > 100 µM
65 | CC(O)C1(CNc2cc(Cl)nc(N)n2)CCCCC1 (stereo not drawn) |  | > 100 µM
66 | C=C(CN1CCN(c2ccc(C(F)(F)F)cc2)CC1)c1ccc(C(=O)Nc2ccccc2N)cc1 | > 40.4 µM | > 100 µM
67 | CCOC(=O)c1cc(-n2nnc3ccccc32)cn1C |  | > 10 µM
68 | COc1ccc(C=Nc2c(C(=O)Nc3cccc(Cl)c3C)sc3nc(C)c(C(=O)/C=C/c4ccc(OC)cc4)cc23)cc1 | 4.15 µM | > 50 µM
69 | O=C(/C=C\c1cccc2ccccc12)c1ccc(F)cc1 |  | > 100 µM
70 | COc1ccc(OC)c(NCC(=O)Nn2cnc3ccc(S(=O)(=O)Nc4cc(OC)ccc4OC)cc3c2=O)c1 |  | > 100 µM
71 | O=C1c2ccccc2C(=O)N1CCSCC(CO)SCCN1C(=O)c2ccccc2C1=O (stereo not drawn) |  | > 100 µM
72 | Cc1c(O)c(N=Nc2nc3ccccc3s2)c2ccccc2c1O | > 50 µM | > 50 µM
73 | CC(C)C(=O)N1Cc2cc(Cl)cc(Cl)c2OC(=O)c2ccccc21 |  | > 100 µM
74 | O=C(Nc1ccc(Cc2ccccc2)cc1)Nc1nn(C(=O)Nc2ccc(Cc3ccccc3)cc2)c2ccccc12 | > 100 µM | > 100 µM
75 | COC(=O)C1CCN(C(=O)OC(C)(C)C)CC1 |  | > 100 µM
76 | CCc1c2c(cc3c1CC1(C3)Cc3cc4c(c(C(=O)OC)c3C1)CCCC4)CCCC2 (stereo not drawn) |  | > 100 µM
77 | CC(=O)Nc1cc2cc(N)ccc2oc1=O |  | > 100 µM
78 | CCN(CC)CCCC(C)Nc1ccnc2cc(Cl)ccc12 (stereo not drawn) | 39.9 µM | > 100 µM

Row | Compound | GI50 | TGI
79 | CC/C=C\C[C@H](F)C/C=C1/C(=O)C=C[C@@H]1C/C=C\CCCC(=O)OC | 3.3 µM | 10.4 µM
80 | CCCNC(=S)N/N=C(\C)c1ccc(S(=O)(=O)N(C)c2ccccc2)cc1 |  | > 100 µM
81 | COc1cc2c3cc1Oc1c(OC)c(OC)cc4c1C(=NCC4)Cc1ccc(cc1)Oc1cc(ccc1O)C[C@H]3N(C)CC2 |  | 65.2 µM
82 | CSC1(C)C(=O)Nc2c(OCc3ccccc3)cc([N+](=O)[O-])cc21 (stereo not drawn) |  | > 100 µM
83 | COc1cc2c(c(OC)c1OC)C(=O)[C@@H]1[C@H]2N1C(=O)NCCCl |  | > 100 µM
84 | COCCN(CCNC(=O)c1cccc2c(N)c3cccc(C)c3nc12)CCOC |  | 7.16 µM
85 | C=CC(O)(CBr)CCC(Br)C(=C)C (stereo not drawn) |  | > 10 µM
86 | C=C(CO)CC(O)c1cc(OC)ccc1OC (stereo not drawn) |  | > 100 µM
87 | C1CSCCSCCCSC2CCCCC2SC1 (stereo not drawn) |  | > 100 µM
88 | COc1c(C)cc2c(C(C)C)c(O)c(O)c(C=O)c2c1O |  | 78 µM
89 | N#CC12CCC1C1CCCCC12N1CCSCC1 (stereo not drawn) |  | > 100 µM
90 | CNC(=O)NCNC(=O)NC |  | > 100 µM
91 | O=c1c2ccc(S(=O)(=O)c3ccc4c(=O)n5c6ccccc6nc5c5cccc3c45)c3cccc(c32)c2nc3ccccc3n12 |  | > 100 µM
92 | O=C1/C=C/[C@@H](O)[C@@H]2C[C@@H](O)C[C@H]2/C=C/CCC[C@H](CCc2cccc3ccccc23)O1 | 0.0569 µM | 13.4 µM
93 | CCOC(=O)CC1COc2ccc3c(c21)OCO3 (stereo not drawn) |  | > 100 µM
94 | CC(C)C12Cc3c(ccc4ccccc34)OC1(C)Oc1ccc3ccccc3c1C2 (stereo not drawn) |  | > 100 µM
95 | CC(CCC[C@H](C)CO)[C@H]1[C@@H](O)C(O)C2[C@@H]3C[C@@H](O)C4(O)C[C@@H](O)CC[C@]4(C)C3CC[C@@]21C (stereo partly drawn) |  | > 100 µM
96 | CCOP(=O)(OCC)/C(C#N)=C/c1cccn1C(C)C |  | > 100 µM
97 | CSCC[C@@H]1C(=O)N(C)[C@H](C(C)(C)C)N1C(=O)c1ccccc1 |  | > 100 µM
98 | COC(OC)c1cc2c(cc1C=O)OCO2 |  | > 100 µM
99 | O=C(O)C[C@@H](Cl)[C@H](NC(=O)OCc1ccccc1)C(=O)O |  | > 100 µM
100 | Oc1ccc(Nc2ccc3ccccc3c2)cc1 | 6.6 µM | 29.4 µM
101 | CCOC(=O)NN(C(=O)OCC)C(C(=O)C1=CCCCC1)N(NC(=O)OCC)C(=O)OCC |  | > 100 µM
